In the supplement of paper PMC9151546:
Many values rest on one well or one pass, so single values are uncertain.

Tests used:
CHO-K1 [1] = experiment: micronucleus frequency (% of nucleated events); higher = more micronuclei (genotoxic)
CHO-K1 [2] = experiment: hypodiploid nuclei frequency (% of nucleated events); higher = more hypodiploid events (aneugenic)
Protocol: (§1)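 Flow-cytometric in vitro micronucleus assay (Litron MicroFlow) in CHO-K1 cells in 96-well plates, 19 concentrations (4.5-200 µM, n=1 per concentration). Without S9, cells were exposed for 24 h and sampled at 48 h. With Aroclor 1254-induced rat liver S9, cells were exposed for 3-4 h and sampled at 27-28 h. Read-outs are %MN and %hypodiploid nuclei relative to nucleated events, and relative survival as the nuclei-to-bead ratio versus the 1% DMSO vehicle control (x100).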

CHO-K1 [3] = experiment: relative survival (nuclei to bead ratio vs DMSO control) (% of vehicle control); higher = more surviving cells
Protocol: as §1
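For hypodiploid nuclei frequency (% of nucleated events) in this document: hypodiploid nuclei gated on a flow cytometer with 488 nm excitation after SYTOX Green staining, cultures at 37 °C, positive controls vinblastine without S9 and cyclophosphamide with S9.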
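For micronucleus frequency (% of nucleated events) in this document: cells lysed with nuclei stained by SYTOX Green, then micronucleus-gated events counted against nucleated events by flow cytometry with 488 nm excitation.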
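For relative survival (nuclei to bead ratio vs DMSO control) in this document: Lysed-cell nuclei stained with SYTOX Green and counted against counting beads by flow cytometry at 488 nm excitation, with vinblastine (no S9) and cyclophosphamide (plus S9) as positive controls.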

CC1(C)C(=O)N(Cl)C(=O)N1Cl [1,3-Dichloro-5,5-dimethylhydantoin]
Conditions | hypodiploid nuclei frequency, CHO-K1 [2] [%] | micronucleus frequency, CHO-K1 [1] [%] | relative survival, CHO-K1 [3]
concentration: 4.5 (µM), S9 metabolic activation: with S9, exposure time: 3-4 hours | 0.28 | 1.9 | 143
concentration: 4.5 (µM), S9 metabolic activation: without S9, exposure time: 24 hours | 0.6 | 1.78 | 103
concentration: 5.63 (µM), S9 metabolic activation: with S9, exposure time: 3-4 hours | 0.32 | 2.42 | 133
concentration: 5.63 (µM), S9 metabolic activation: without S9, exposure time: 24 hours | 0.7 | 1.9 | 89
concentration: 7.04 (µM), S9 metabolic activation: with S9, exposure time: 3-4 hours | 0.2 | 2.76 | 125
concentration: 7.04 (µM), S9 metabolic activation: without S9, exposure time: 24 hours | 0.68 | 2.36 | 116
concentration: 8.8 (µM), S9 metabolic activation: with S9, exposure time: 3-4 hours | 0.28 | 1.94 | 130
concentration: 8.8 (µM), S9 metabolic activation: without S9, exposure time: 24 hours | 0.52 | 1.44 | 109
concentration: 11 (µM), S9 metabolic activation: with S9, exposure time: 3-4 hours | 0.3 | 2.08 | 137
concentration: 11 (µM), S9 metabolic activation: without S9, exposure time: 24 hours | 0.72 | 1.52 | 89.8
concentration: 13.7 (µM), S9 metabolic activation: with S9, exposure time: 3-4 hours | 0.46 | 2.52 | 121
concentration: 13.7 (µM), S9 metabolic activation: without S9, exposure time: 24 hours | 0.68 | 1.98 | 137
concentration: 17.2 (µM), S9 metabolic activation: with S9, exposure time: 3-4 hours | 0.24 | 2.16 | 113
concentration: 17.2 (µM), S9 metabolic activation: without S9, exposure time: 24 hours | 0.72 | 2.06 | 117
concentration: 21.5 (µM), S9 metabolic activation: with S9, exposure time: 3-4 hours | 0.22 | 1.9 | 106
concentration: 21.5 (µM), S9 metabolic activation: without S9, exposure time: 24 hours | 0.7 | 2.52 | 114
concentration: 26.8 (µM), S9 metabolic activation: with S9, exposure time: 3-4 hours | 0.28 | 2.34 | 147
concentration: 26.8 (µM), S9 metabolic activation: without S9, exposure time: 24 hours | 0.86 | 2.16 | 79.3
concentration: 33.6 (µM), S9 metabolic activation: with S9, exposure time: 3-4 hours | 0.3 | 2.26 | 115
concentration: 33.6 (µM), S9 metabolic activation: without S9, exposure time: 24 hours | 0.88 | 2.52 | 106
concentration: 41.9 (µM), S9 metabolic activation: with S9, exposure time: 3-4 hours | 0.2 | 2.08 | 112
concentration: 41.9 (µM), S9 metabolic activation: without S9, exposure time: 24 hours | 0.94 | 2.52 | 92.9
concentration: 52.4 (µM), S9 metabolic activation: with S9, exposure time: 3-4 hours | 0.36 | 1.56 | 133
concentration: 52.4 (µM), S9 metabolic activation: without S9, exposure time: 24 hours | 0.66 | 2.22 | 72.9
concentration: 65.5 (µM), S9 metabolic activation: with S9, exposure time: 3-4 hours | 0.28 | 1.66 | 83.8
concentration: 65.5 (µM), S9 metabolic activation: without S9, exposure time: 24 hours | 0.96 | 2.42 | 86.2
concentration: 81.9 (µM), S9 metabolic activation: with S9, exposure time: 3-4 hours | 0.36 | 3.46 | 103
concentration: 81.9 (µM), S9 metabolic activation: without S9, exposure time: 24 hours | 0.78 | 2.06 | 83.6
concentration: 102 (µM), S9 metabolic activation: with S9, exposure time: 3-4 hours | 0.32 | 2.48 | 99
concentration: 102 (µM), S9 metabolic activation: without S9, exposure time: 24 hours | 0.88 | 1.94 | 85.2
concentration: 128 (µM), S9 metabolic activation: with S9, exposure time: 3-4 hours | 0.48 | 2.86 | 111
concentration: 128 (µM), S9 metabolic activation: without S9, exposure time: 24 hours | 1.16 | 2.38 | 88.7
concentration: 160 (µM), S9 metabolic activation: with S9, exposure time: 3-4 hours | 0.34 | 2.7 | 98
concentration: 160 (µM), S9 metabolic activation: without S9, exposure time: 24 hours | 1.24 | 2.74 | 90.5
concentration: 200 (µM), S9 metabolic activation: with S9, exposure time: 3-4 hours | 0.44 | 2.04 | 104
concentration: 200 (µM), S9 metabolic activation: without S9, exposure time: 24 hours | 1.34 | 2.14 | 79.3
